# According to PubChem BioAssay (Tox21):
# Several values for one entry are separate records, joined by “and”; a condition that tells them apart may be missing. Equal entries are not always repeated. The inconclusive results got no clear call from the source; some entries with a clear call stand among them for comparison. For some assays here: Potencies of inconclusive entries are doubtful fits and often do not repeat. Some structures have more than one record in an assay (separate samples or runs), and their calls can disagree. Activity calls are given as the source filed them. Unless noted, the call rests on the fitted dose curve.
# Key:
# [1] = molecular target: Peroxisome proliferator-activated receptor gamma (Homo sapiens) (UniProt P37231); assay: qHTS assay to identify small molecule agonists of the peroxisome proliferator-activated receptor gamma (PPARg) signaling pathway (AID 743094; active means well fitted activation curve with a large enough effect in the signal ratio in the repeat runs, not every such curve was filed as active; inconclusive means weak or mixed curves, or effect the other way; inactive means no such curve, though single readings can be large or run the other way; the % refers to the signal ratio; further: potency means the concentration at half of the fitted maximal effect; on activation: on the % scale 0 is the no-effect control and ±100 the full control effect); conditions: HEK293H PPARg-UAS-bla, beta-lactamase FRET ratio, 17 h; activation: at 57 µM (top of the series) unless noted
# Outline: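 HEK293H PPARg-bla cells, 5 h settle at 37C/5% CO2; compound (DMSO) 17 h, 37C; B/G FRET substrate 1 h RT; fluorescence intensity read-out. qHTS format.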
# [2] = molecular target: Peroxisome proliferator-activated receptor gamma (Homo sapiens) (UniProt P37231); assay: qHTS assay to identify small molecule antagonists of the peroxisome proliferator-activated receptor gamma (PPARg) signaling pathway (AID 743191); conditions: HEK293H PPARg-UAS-bla, beta-lactamase ratio, antagonist, 17 h; ratio activity, negative = inhibition: at 62.6 µM (top of the series) unless noted; further: nearly all actives have a fitted effect of over 30% in size; further: potency means the concentration at half of the fitted maximal effect; on ratio activity, negative = inhibition: on the % scale 0 is the no-effect control and ±100 the full control effect
# Outline: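 GeneBLAzer PPARg UAS-bla HEK293H cells, 5 h post-plating, exposed to compounds 17 h at 37C. LiveBLAzer B/G FRET substrate added for 1 h at room temperature; beta-lactamase reporter read by fluorescence intensity.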
# [3] = qHTS assay to identify small molecule antagonists of the peroxisome proliferator-activated receptor gamma (PPARg) signaling pathway - cell viability counter screen (AID 743194; active means well fitted curve in the direction sought with a large enough effect in the repeat runs; inconclusive means weak or mixed curves; inactive means no such curve, though single readings can be large; an effect the other way counts as inactive or inconclusive; further: potency means the concentration at half of the fitted maximal effect; nearly all actives have a fitted effect of over 55% in size); conditions: PPARg-bla HEK293H viability, CellTiter-Glo luminescence, 17 h, co-treated with 50 nM rosiglitazone; activity change, negative = cytotoxicity: at 62.6 µM (top of the series) unless noted
# Outline: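 Cytotoxicity counter screen in PPARg-bla HEK293H cells, same wells as reporter assay. Compounds plus 50 nM rosiglitazone (final) for 17 h at 37 C, then viability read by CellTiter-Glo luminescence.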
# [4] = qHTS assay for small molecule agonists of the antioxidant response element (ARE) signaling pathway (AID 743202; active means well fitted activation curve with a large enough effect in the signal ratio in the repeat runs, not every such curve was filed as active; inconclusive means weak or mixed curves, or effect the other way; inactive means no such curve, though single readings can be large or run the other way; the % refers to the signal ratio; further: potency means the concentration at half of the fitted maximal effect); conditions: HepG2 ARE-bla reporter, beta-lactamase FRET, 16 h; activation: at 73.3 µM (top of the series) unless noted
# Outline: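 HepG2 ARE-bla reporter line, 2,000 cells/well; 5 h preincubation 37 C/5% CO2; compound (DMSO) 16 h 37 C; B/G FRET substrate 2 h RT; fluorescence intensity.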
# [5] = qHTS assay to identify small molecule antagonists of the peroxisome proliferator-activated receptor delta (PPARd) signaling pathway - cell viability counter screen (AID 743213; active means well fitted curve in the direction sought with a large enough effect in the repeat runs; inconclusive means weak or mixed curves; inactive means no such curve, though single readings can be large; an effect the other way counts as inactive or inconclusive; further: on the % scale 0 is the no-effect control and ±100 the full control effect; nearly all actives have a fitted effect of over 50% in size); conditions: PPARd-bla HEK293H viability, CellTiter-Glo luminescence, 17 h; viability change, negative = cytotoxic: at 62 µM (top of the series) unless noted
# Outline: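 Cytotoxicity counter screen: CellTiter-Glo luminescence read 30 min after addition, in the same wells as the reporter assay. There, PPARd UAS-bla HEK293H cells (3000/well) were treated 17 h at 37 C with compound and 300 nM L165041.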
# [6] = molecular target: Bile acid receptor (Homo sapiens) (UniProt Q96RI1); assay: qHTS assay to identify small molecule antagonists of the farnesoid-X-receptor (FXR) signaling pathway (AID 743217; active means well fitted inhibition curve with a large enough effect in the signal ratio in the repeat runs, not every such curve was filed as active; inconclusive means weak or mixed curves, or effect the other way; inactive means no such curve, though single readings can be large or run the other way; the % refers to the signal ratio; further: on the % scale 0 is the no-effect control and ±100 the full control effect); conditions: HEK293T FXR-UAS-bla, beta-lactamase ratio, CDCA-stimulated, 16 h; activity change, negative = inhibition: at 62.6 µM (top of the series) unless noted
# Outline: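 Read-out: beta-lactamase FRET fluorescence (LiveBLAzer B/G substrate, 2 h, room temperature) in GeneBLAzer FXR-UAS-bla HEK 293T cells. Compounds were co-dosed with 50 uM chenodeoxycholic acid (final) and incubated 16 h at 37 °C.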
# [7] = molecular target: Peroxisome proliferator-activated receptor delta (Homo sapiens) (UniProt Q03181); assay: qHTS assay to identify small molecule antagonists of the peroxisome proliferator-activated receptor delta (PPARd) signaling pathway (AID 743215; active means well fitted inhibition curve with a large enough effect in the signal ratio in the repeat runs, not every such curve was filed as active; inconclusive means weak or mixed curves, or effect the other way; inactive means no such curve, though single readings can be large or run the other way; the % refers to the signal ratio;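 further: cells stimulated with agonist L165041 at 300 nM final during compound exposure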; further: potency means the concentration at half of the fitted maximal effect; on ratio activity, negative = inhibition: on the % scale 0 is the no-effect control and ±100 the full control effect); conditions: HEK293H PPARd-UAS-bla, beta-lactamase FRET ratio, antagonist, 17 h; ratio activity, negative = inhibition: at 62 µM (top of the series) unless noted
# Outline: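 HEK293H GeneBLAzer PPARd UAS-bla reporter cells; cpd + L165041 300 nM final, 17 h 37 C; LiveBLAzer B/G FRET substrate 2 h RT; fluorescence intensity read-out. Antagonist mode.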
# [8] = qHTS assay to identify small molecule agonists of the farnesoid-X-receptor (FXR) signaling pathway - cell viability counter screen (AID 743218; active means well fitted curve in the direction sought with a large enough effect in the repeat runs; inconclusive means weak or mixed curves; inactive means no such curve, though single readings can be large; an effect the other way counts as inactive or inconclusive; further: potency means the concentration at half of the fitted maximal effect; nearly all actives have a fitted effect of over 45% in size); conditions: FXR-bla HEK293T viability, CellTiter-Glo luminescence, 16 h; viability change, negative = cytotoxic: at 62.6 µM (top of the series) unless noted
# Outline: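 Luminescence from CellTiter-Glo, read after 30 min at RT, reports viability of GeneBLAzer FXR-UAS-bla HEK 293T cells treated 16 h with compounds in the wells used for the beta-lactamase reporter.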
# [9] = molecular target: Vitamin D3 receptor (Homo sapiens) (UniProt P11473); assay: qHTS assay to identify small molecule agonists of the vitamin D receptor (VDR) signaling pathway (AID 743222); conditions: HEK293T VDR-UAS-bla, beta-lactamase FRET ratio, 16 h; activation: at 63.5 µM (top of the series) unless noted; further: potency means the concentration at half of the fitted maximal effect
# Outline: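 Beta-lactamase reporter readout (LiveBLAzer B/G FRET, 2 h RT) in VDR-bla cells after 16 h compound treatment at 37C, 5% CO2; cells pre-incubated 4 h before pin transfer of DMSO solutions.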
# [10] = molecular target: Vitamin D3 receptor (Homo sapiens) (UniProt P11473); assay: qHTS assay to identify small molecule antagonists of the vitamin D receptor (VDR) signaling pathway (AID 743223; active means well fitted inhibition curve with a large enough effect in the signal ratio in the repeat runs, not every such curve was filed as active; inconclusive means weak or mixed curves, or effect the other way; inactive means no such curve, though single readings can be large or run the other way; the % refers to the signal ratio; further: potency means the concentration at half of the fitted maximal effect); conditions: VDR-UAS-bla HEK293T, beta-lactamase FRET ratio, 16 h; activity change, negative = inhibition: at 61 µM (top of the series) unless noted
# Outline: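 Agonist 1alpha,25-dihydroxyvitamin D3 (3 nM in well) was added with each compound to VDR-bla cells preincubated 4 h. Cells stood 16 h at 37C, then FRET substrate 2 h at room temperature; fluorescence intensity recorded.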
# [11] = qHTS assay to identify small molecule agonists of the vitamin D receptor (VDR) signaling pathway - cell viability counter screen (AID 743224; active means well fitted curve in the direction sought with a large enough effect in the repeat runs; inconclusive means weak or mixed curves; inactive means no such curve, though single readings can be large; an effect the other way counts as inactive or inconclusive; further: nearly all actives have a fitted effect of over 50% in size; further: potency means the concentration at half of the fitted maximal effect); conditions: VDR-bla HEK293T viability, CellTiter-Glo luminescence, 16 h; activity change, negative = cytotoxicity: at 62.6 µM (top of the series)
# Outline: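 Cytotoxicity counter screen: VDR-bla cells, 16 h compound exposure at 37C, 5% CO2; CellTiter-Glo luminescence, 30 min RT, same wells as bla read.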
# [12] = qHTS assay to identify small molecule agonists of the peroxisome proliferator-activated receptor delta (PPARd) signaling pathway - cell viability counter screen (AID 743211; active means well fitted curve in the direction sought with a large enough effect in the repeat runs; inconclusive means weak or mixed curves; inactive means no such curve, though single readings can be large; an effect the other way counts as inactive or inconclusive; further: potency means the concentration at half of the fitted maximal effect; nearly all actives have a fitted effect of over 55% in size); conditions: PPARd-bla HEK293H viability, CellTiter-Glo luminescence, 17 h; activity change, negative = cytotoxicity: at 62.6 µM (top of the series) unless noted
# Outline: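 Luminescent ATP viability assay (CellTiter-Glo, 30 min RT) in UAS-bla HEK293H cells carrying the PPAR delta reporter construct, 3000 cells/well, after a 17 h compound treatment at 37 C.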
# [13] = molecular target: Peroxisome proliferator-activated receptor delta (Homo sapiens) (UniProt Q03181); assay: qHTS assay to identify small molecule agonists of the peroxisome proliferator-activated receptor delta (PPARd) signaling pathway (AID 743212); conditions: HEK293H PPARd-UAS-bla, beta-lactamase FRET ratio, 17 h; activation: at 62.6 µM (top of the series) unless noted; further: potency means the concentration at half of the fitted maximal effect
# Outline: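 Read-out: beta-lactamase FRET fluorescence after 2 h room-temperature incubation with LiveBLAzer B/G substrate. Cells were HEK293H carrying a UAS-bla reporter for PPARd, treated at 37 C with DMSO-dissolved compounds.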
# Tags describe the fitted curve by direction and shape or compound fluorescence and quenching.
# UniProt P11473, sequence (P11473 whole entry, looked up): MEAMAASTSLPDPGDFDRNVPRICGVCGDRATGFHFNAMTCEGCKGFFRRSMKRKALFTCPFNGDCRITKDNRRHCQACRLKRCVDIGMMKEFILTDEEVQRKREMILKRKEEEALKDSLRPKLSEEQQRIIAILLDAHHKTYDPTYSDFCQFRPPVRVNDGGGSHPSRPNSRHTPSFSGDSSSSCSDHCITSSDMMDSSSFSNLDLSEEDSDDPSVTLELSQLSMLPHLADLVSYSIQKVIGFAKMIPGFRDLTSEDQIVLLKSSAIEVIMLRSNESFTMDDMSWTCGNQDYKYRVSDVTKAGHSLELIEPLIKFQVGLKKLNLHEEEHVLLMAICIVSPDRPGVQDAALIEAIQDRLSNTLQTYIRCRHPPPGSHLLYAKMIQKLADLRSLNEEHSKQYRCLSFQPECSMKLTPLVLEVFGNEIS
# UniProt P37231, sequence (P37231 whole entry, looked up): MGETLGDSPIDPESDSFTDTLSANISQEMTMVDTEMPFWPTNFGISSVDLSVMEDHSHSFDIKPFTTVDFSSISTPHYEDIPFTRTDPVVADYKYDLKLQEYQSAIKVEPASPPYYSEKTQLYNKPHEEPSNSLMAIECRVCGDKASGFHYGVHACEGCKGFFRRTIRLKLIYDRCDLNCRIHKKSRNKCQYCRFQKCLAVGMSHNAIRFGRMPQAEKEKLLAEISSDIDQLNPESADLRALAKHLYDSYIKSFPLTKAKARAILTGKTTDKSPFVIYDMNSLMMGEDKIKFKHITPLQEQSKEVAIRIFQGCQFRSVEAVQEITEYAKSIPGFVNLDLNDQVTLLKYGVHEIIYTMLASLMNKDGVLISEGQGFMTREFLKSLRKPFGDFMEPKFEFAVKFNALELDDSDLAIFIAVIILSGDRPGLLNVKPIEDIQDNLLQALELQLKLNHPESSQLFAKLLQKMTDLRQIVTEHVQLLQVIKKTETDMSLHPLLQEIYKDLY
# UniProt Q03181, sequence (Q03181 whole entry, looked up): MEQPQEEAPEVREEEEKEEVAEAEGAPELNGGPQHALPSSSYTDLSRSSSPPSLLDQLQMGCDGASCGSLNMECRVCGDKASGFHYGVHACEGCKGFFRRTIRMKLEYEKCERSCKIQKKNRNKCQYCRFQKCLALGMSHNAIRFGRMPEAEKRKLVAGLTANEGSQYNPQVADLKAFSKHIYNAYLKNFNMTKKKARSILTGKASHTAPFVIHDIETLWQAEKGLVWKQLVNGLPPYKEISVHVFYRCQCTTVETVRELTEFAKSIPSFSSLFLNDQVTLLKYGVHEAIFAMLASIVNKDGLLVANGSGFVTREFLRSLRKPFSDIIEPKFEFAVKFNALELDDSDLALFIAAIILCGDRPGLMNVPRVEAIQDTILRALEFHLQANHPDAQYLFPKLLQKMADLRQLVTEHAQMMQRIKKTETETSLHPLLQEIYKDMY
# UniProt Q96RI1, sequence (Q96RI1 whole entry, looked up): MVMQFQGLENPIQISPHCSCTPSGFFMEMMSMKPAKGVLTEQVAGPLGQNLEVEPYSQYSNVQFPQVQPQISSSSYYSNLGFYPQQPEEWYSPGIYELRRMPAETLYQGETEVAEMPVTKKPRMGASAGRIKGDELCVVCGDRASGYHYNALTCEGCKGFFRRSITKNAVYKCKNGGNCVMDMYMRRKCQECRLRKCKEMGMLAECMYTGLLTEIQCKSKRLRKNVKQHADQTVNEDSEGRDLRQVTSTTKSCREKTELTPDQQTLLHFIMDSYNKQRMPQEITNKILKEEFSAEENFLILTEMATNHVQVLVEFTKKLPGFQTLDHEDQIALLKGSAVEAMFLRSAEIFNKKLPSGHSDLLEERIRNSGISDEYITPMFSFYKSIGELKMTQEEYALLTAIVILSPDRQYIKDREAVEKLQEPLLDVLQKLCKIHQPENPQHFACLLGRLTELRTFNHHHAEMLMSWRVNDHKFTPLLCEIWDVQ
smiles,measurement,setting,value
Clc1cc(Cl)nc(Cl)n1,activation,[1],inconclusive: 14.3% [at 78.9 µM]
same,Potency,[2],inconclusive: 55.7 µM
same,Potency,[3],active: 49.6 µM
same,Potency,[4],"inconclusive: 8.75 µM [rising, partial curve]"
same,Potency,[5],inactive
same,Potency,[6],inactive
CC(=O)O[C@]1(C(C)=O)CC[C@H]2[C@@H]3C=C(Cl)C4=CC(=O)CC[C@]4(C)[C@H]3CC[C@@]21C,Potency,[1],"inconclusive: 26.8 µM [fluorescent] and inconclusive: 13.8 µM [fluorescent, full curve]"
same,"ratio activity, negative = inhibition",[2],inconclusive: 13.4% and inconclusive: 2.6%
same,Potency,[3],"inconclusive: 12.3 µM [cytotoxic, full curve, poor fit] and inconclusive: 33.5 µM [cytotoxic, single point]"
same,"ratio activity, negative = inhibition",[7],inconclusive: 28.3%
same,Potency,[8],"inconclusive: 61.5 µM [cytotoxic, single point]"
same,Potency,[9],"inconclusive: 10.9 µM [rising, full curve]"
same,activation,[9],inconclusive: -22.1%
same,Potency,[10],"inconclusive: 1.55 µM [fluorescent, full curve, poor fit] and inconclusive: 13.4 µM [fluorescent, partial curve, poor fit]"
same,Potency,[11],active: 43.6 µM and inactive
Cc1cc(=O)oc2cc(O)ccc12,Potency,[1],inconclusive: 54.9 µM [activator] and active: 49 µM
same,activation,[1],inconclusive: 7.29% [at 26.2 µM]
same,Potency,[2],"inconclusive: 24.5 µM [activator, partial curve] and inconclusive: 54.9 µM [activator, partial curve, poor fit] and inconclusive: 29.8 µM [activator]"
same,Potency,[4],inconclusive: 61.1 µM and inconclusive: 33.5 µM
same,Potency,[12],"inconclusive: 27.5 µM [rising, partial curve, poor fit]"
same,Potency,[13],active: 43.6 µM and active: 26.6 µM
same,Potency,[5],inactive
same,Potency,[7],"inconclusive: 43.6 µM [activator, partial curve] and inconclusive: 49 µM [activator, partial curve] and inconclusive: 21.1 µM [activator, partial curve]"
same,Potency,[9],"inconclusive: 30.9 µM [fluorescent, partial curve, poor fit] and inconclusive: 54.9 µM [fluorescent, single point] and active: 21.1 µM"
same,Potency,[10],"inconclusive: 38.9 µM [activator, partial curve] and inconclusive: 23.9 µM [activator]"
same,"activity change, negative = inhibition",[10],inconclusive: 49.9%
